Results taken from US20210330611A1, “THERAPY FOR NEUROLOGICAL DISEASES/DISORDERS” (priority 2020, published 2021).
Structures can show the parent of a compound that is named as a salt. Where two headings read alike, the source gives them in different places.

Tests used:
[1] = test system: fibrin-induced microglia activation; assay: Image-based assay of fibrin-induced microglia activation (HTS and dose response); assay type: cell-based, rat; settings: for inhibition at 10 µM: Rattus norvegicus, Microglia, read-out: Fibrin % inhibition
[2] = test system: LPS-induced microglia activation; assay: Image-based assay of LPS-induced microglia activation (HTS and dose response); assay type: cell-based, rat; settings: for inhibition at 10 µM: Rattus norvegicus, Microglia, read-out: LPS % inhibition

Structure (SMILES) | inhibition at 10 µM [1] [%] | inhibition at 10 µM [2] [%] | further results
CC(C)OC(=O)C(C)(C)Oc1ccc(C(=O)c2ccc(Cl)cc2)cc1 [Fenofibrate] | -37 | 0 | 
CN1C2CCCC1CC(NC(=O)c1nn(C)c3ccccc13)C2 (centres unmarked) [Granisetron Hydrochloride] |  |  | Fibrin % inhibition [1]: −1%; LPS % inhibition [2]: 14%
COc1cccc(C2(O)CCCCC2CN(C)C)c1 (centres unmarked) [Tramadol] | 26 | 12 | 
O=C(CCCCCCC(=O)Nc1ccccc1)NO [Vorinostat] | 112 | 112 | 
CN1C2CCCC1CC(NC(=O)c1nn(C)c3ccccc13)C2 (centres unmarked) [Granisetron] |  |  | Fibrin % inhibition [1]: −38%; LPS % inhibition [2]: 4%
COc1cccc(C2(O)CCCCC2CN(C)C)c1 (centres unmarked) [Tramadol Hydrochloride] |  |  | Fibrin % inhibition ([1]; 10 µM): 35%; LPS % inhibition ([2]; 10 µM): 21%
CN1Cc2c(N)cccc2C(c2ccccc2)C1 (centres unmarked) [Nomifensine] | -12 |  | inhibition at 10 µM ([2]; 48 h): 13%
